System: ESKAPE pathogens
Test: Disk diffusion antimicrobial assay
Settings: 6 mm paper disks loaded with 5 μL of 2.56 mg/mL in DMSO, 37 °C, 16 h, all ESKAPE pathogens

Substance | antimicrobial activity (size of the inhibition zone)
H-WALY-OH (also: sidechain bridge or staple (positions not given here)) [compound 4, scabrirubin CB-4] | None of the compounds showed antimicrobial activity
H-WYIW-OH (also: sidechain bridge or staple (positions not given here)) [compound 1, scabrirubin CB-1] | None of the compounds showed antimicrobial activity
H-WYQWL-OH (also: sidechain bridge or staple (positions not given here)) [compound 3, scabrirubin CB-3] | None of the compounds showed antimicrobial activity

— article PMC12352619, “Phylogeny-guided discovery of a promiscuous P450 macrocyclase for the production of diverse atropopeptides” (Chemical Science, 2025)
